Results: the supplement of paper PMC11417369
± gives the standard deviation of the averaged measurements. The list shows a part of the results.

tested on: PfAP2-G AP2 domain (GST-tagged); assay: gcPBM binding intensity (ln(normalized median fluorescence intensity)); higher = stronger DNA binding
Outline: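 The highest Masliner-normalised natural-log median intensity across replicate spots of either probe orientation is reported as binding intensity. GST-tagged P. falciparum DNA-binding domains expressed in E. coli were applied for 1 h to an Agilent 4 × 180k array of primer-extended double-stranded 36-bp intergenic genomic probes plus negative controls, and bound protein was detected with Alexa488 anti-GST antibody and scanned at 488 nm.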

Sequence | gcPBM binding intensity (ln)
ATCATTTTGTGTTCAAGTACATAATGTTTTACACAA [XGTACX_site3565] | 11 ± 0.61
AATGATTTTAAATGAACATAATTTATATTCATAACA [GTGCAC_negctrl_site256] | 9.64 ± 0.12
GTGTGCCAAATTAGCACACACATATATACATGAATT [CACACA_site7346] | 10.2 ± 0.23
TATTCATTAAACCATACACACATAATTTTTTTATAA [CACACA_site4618] | 9.895 ± 0.078
ATATATTATATAAAAAGTACTAAAATAGTAAGATGT [XGTACX_site7493] | 11.2 ± 0.7
ACACATAATATAAAGGTGCTATATTGTATTCATTTT [GTGCAC_site9457] | 9.69 ± 0.23
TTTTCATACACTGCTAGTATATACTACCACTGACAT [GTGCAC_negctrl_site514] | 10.4 ± 0.23
AAACATATATTAAGCACACACAAACAAAAAAACAAA [CACACA_site2549] | 10.2 ± 0.27
TGCAAAAAAAAAAAAAAAAAATATATGGAAATATAT [GTGCAC_negctrl_site257] | 9.51 ± 0.18
ACATTGAACAAAATAGTAAGCACATATATATATATA [GTGCAC_negctrl_site679] | 10.1 ± 0.37
TGATTCATTGATAAGGGTACATTTATAATTATGATA [XGTACX_site6319] | 11 ± 0.61
ACGTATCAATTTATTGGTACACATAAATATATATAT [XGTACX_site5556] | 11.3 ± 0.92
ATGATAATTTTTTTCTCACACACAAATATTTTAATC [CACACA_site3665] | 9.915 ± 0.035
ATGTTCCATTTTACTTGTACTAATTTTTTCCTATCT [XGTACX_site6474] | 11.3 ± 0.71
TATATTATTTTCTTTTGTACACATATATATCAGTGT [XGTACX_site664] | 11.3 ± 0.59
CAATAATATATATATTGTACATTTTTTTTTATTATT [XGTACX_site3149] | 11 ± 0.61
AAAGATTCTTTGAATTGTACAAATATATTTACTCAC [XGTACX_site8772] | 10.7 ± 0.33
ATAATAATAAAGTATGCATGCATATAATATAATATA [TGCATGCA_site796] | 9.79 ± 0.11
TTTTTATTGCAATACTTATATTTTTTTATGATTAAA [TGCATGCA_negctrl_site147] | 10.1 ± 0.16
AAAAAATCACAACACACACACACACTAATAAAAAAA [CACACA_site8410] | 10.1 ± 0.21
ACTGTAAATTTATTCGGTACACATATAAATAATATT [XGTACX_site7346] | 11.1 ± 0.64
AAATCACATAAAACATAATCAAATGAAATATAATCA [CACACA_negctrl_site123] | 9.47 ± 0.38

Sequence | gcPBM binding intensity (ln)
TAAATATTATTATATACATGCACTTACAACTTTTTT [TGCATGCA_site877] | 10.04 ± 0.092
TATTGTAAAAAGATTACACACGTTCTATATACTTTT [CACACA_site5379] | 9.88 ± 0.26
AATAAAAAAATATATTGTACTAATAATTATATGTTT [XGTACX_site2246] | 11 ± 0.67
ATTATTTTTAAAAATTGTACAGTATAAGAGAGAAAT [XGTACX_site7094] | 11.2 ± 0.61
ACAGTAGCCAGTAACTGTACGGATTGTAGAGATCAG [XGTACX_site4873] | 11.3 ± 0.7
ATAATATTTAGGTGTGCACACAAACATACATATATA [CACACA_site9120] | 10.7 ± 0.4
TTAATGGCAAAATAGGCACACACACCGATACATATA [CACACA_site8263] | 10.2 ± 0.15
TGGAAATTCTCAGGAGTGCATATTTGCAGTTTACGT [GTGCAC_site9768] | 10.3 ± 0.25
TAGATACATAAAAGTGGTACATATATATATATATAT [XGTACX_site6263] | 11.4 ± 0.97
AATATTTATATTTACACACACATAATACCTATATGT [CACACA_site6167] | 9.9 ± 0.11
ATAATAAATTATTATGTACACACATAATAGTATATA [CACACA_site8538] | 11.3 ± 0.88
ATGGTTAAAAAAAGCATACACACTATCCTCTTTGCT [CACACA_site2552] | 9.925 ± 0.021
TTTGTTGACGGACACACACACATACAGATATATATA [CACACA_site5292] | 11.4 ± 1
CCGTTGAACATATATGCACACACATAAAATAAAAAA [CACACA_site8761] | 10.2 ± 0.26
TTTTTGTCTGCATACGCACACACGTGTACCATCTTA [CACACA_site1173] | 11.2 ± 0.7
TGGTTACTGTCATTAGTTATTTCTTGTTGACAATTA [CACACA_negctrl_site416] | 9.97 ± 0.014
ATATTTTTTTTTTTTTGTACATATATCATTATATAT [XGTACX_site866] | 10.8 ± 0.47
GAGAGTAAAACAAATATACACACCATAAAGTTATAA [CACACA_site1686] | 9.93 ± 0.16
ATTTCGTTCTTTTATGCACACTCAACATATAAATTA [CACACA_site8322] | 10.5 ± 0.38
ATATATATATATAAATGTACATATGTATAATTCATA [XGTACX_site6679] | 10.9 ± 0.53
TTCTCACTTTTAAATTTTATTCAAAAATAAGGAAAG [XGTACX_negctrl_site444] | 9.89 ± 0.34
TAGAATGTATGTAGTGCACACCTCTATAATATATTA [CACACA_site1873] | 10.6 ± 0.45
